Measurements as given in publication PMC4336329 (PLoS ONE, 2015).
In all, about 310,000 compounds went through this assay and about 14,000 (4.5%) showed an effect of 50% or more. The effect is printed as a negative number. This is one part of the list.

Each compound was assayed against human ether-à-go-go-related gene (hERG) potassium channel (human, UniProt Q12809) (assay: primary screen, population patch clamp on CHO cells stably expressing hERG).
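Note: peak tail current of the secondary pulse compared with the same well before compound.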

Chain of human ether-à-go-go-related gene (hERG) potassium channel (Q12809 whole entry, looked up): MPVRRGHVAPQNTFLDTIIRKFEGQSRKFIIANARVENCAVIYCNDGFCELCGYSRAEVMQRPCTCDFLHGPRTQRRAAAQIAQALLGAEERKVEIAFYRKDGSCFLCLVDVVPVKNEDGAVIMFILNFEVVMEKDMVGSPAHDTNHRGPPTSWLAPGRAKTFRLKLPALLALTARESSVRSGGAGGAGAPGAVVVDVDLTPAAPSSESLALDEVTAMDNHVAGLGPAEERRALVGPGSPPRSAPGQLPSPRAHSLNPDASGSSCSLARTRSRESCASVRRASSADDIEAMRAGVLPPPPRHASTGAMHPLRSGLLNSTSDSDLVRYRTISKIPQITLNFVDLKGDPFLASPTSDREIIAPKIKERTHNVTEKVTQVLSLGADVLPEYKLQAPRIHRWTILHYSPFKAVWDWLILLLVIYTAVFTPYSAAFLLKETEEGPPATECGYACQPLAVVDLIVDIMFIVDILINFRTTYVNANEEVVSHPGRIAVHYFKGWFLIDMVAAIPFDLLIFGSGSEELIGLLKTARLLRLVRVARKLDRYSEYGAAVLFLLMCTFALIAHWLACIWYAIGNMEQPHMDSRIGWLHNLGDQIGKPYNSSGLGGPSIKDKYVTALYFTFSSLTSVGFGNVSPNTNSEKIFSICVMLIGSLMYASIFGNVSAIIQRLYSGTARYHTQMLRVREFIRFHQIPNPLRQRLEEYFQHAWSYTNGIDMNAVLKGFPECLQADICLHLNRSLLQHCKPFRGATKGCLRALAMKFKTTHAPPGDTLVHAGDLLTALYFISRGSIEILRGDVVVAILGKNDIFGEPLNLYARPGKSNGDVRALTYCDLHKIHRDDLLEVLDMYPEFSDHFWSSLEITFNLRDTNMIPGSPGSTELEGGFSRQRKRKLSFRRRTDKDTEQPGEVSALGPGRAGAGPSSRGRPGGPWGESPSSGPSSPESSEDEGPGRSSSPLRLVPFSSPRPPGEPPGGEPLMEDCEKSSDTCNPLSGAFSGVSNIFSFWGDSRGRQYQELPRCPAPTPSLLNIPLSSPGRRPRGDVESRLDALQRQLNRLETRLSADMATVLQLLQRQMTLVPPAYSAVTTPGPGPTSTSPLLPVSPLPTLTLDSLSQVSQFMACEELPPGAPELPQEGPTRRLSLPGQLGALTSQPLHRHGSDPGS

SMILES	hERG current change (%, negative = inhibition) at 10uM
CCCCC1CCC(C(=O)OCC(=O)N(CCOC)c2c(N)n(Cc3ccccc3)c(=O)[nH]c2=O)CC1 (centres unmarked)	22.3%
COc1ccc(CCC(=O)OCC(=O)NCc2ccccc2)cc1	7.86%
O=C(Nc1ccccc1N1CCCC1)c1ccccc1Cl	6.75%
COc1ccc(NC(=O)CC2C(=O)N(Cc3ccco3)C(=S)N2C(C)C)cc1 (centres unmarked)	-17.4%
Cc1ccc(C(=O)OCc2nc3ccsc3c(=O)[nH]2)o1	4.57%
CC(C(=O)NCC1CCCO1)N1C(=O)C2C3CC(C(Br)C3Br)C2C1=O (centres unmarked)	5.46%
C/C=C\C=C\C(=O)N1CC2(CC(c3cccc(NC(=O)/C(C)=C\C)c3)=NO2)C[C@H]1C(N)=O (some centres unmarked)	-1.59%
O=C(COC(=O)c1n[nH]c2ccccc12)NC(=O)NC1CCCC1	8.1%
Cc1ccc(S(=O)(=O)NCc2ccc(C(=O)NCCCN3CCN(C)CC3)cc2)cc1	19.3%
COC(=O)CN(C#N)c1nc(SC)nc(N(C)C)n1	6.74%
CCn1nnnc1SCC(=O)N1CCN(Cc2ccc3c(c2)OCCO3)CC1	10.4%
COc1ccc(-c2nc3c4c(ncn3n2)-c2ccccc2CC42CCCC2)cc1	14%
CCS(=O)(=O)N1CCCC(C(=O)NCCN2CCC(Cc3ccccc3)CC2)C1 (centres unmarked)	-59.1%
CCC1CCCCN1CCCNC(=O)c1c(O)nc2c(C)cccn2c1=O (centres unmarked)	-6.16%
COc1cccc(C(=O)Nc2ccc(NC(=O)C3CC3)cn2)c1	4.31%
O=C(CCS(=O)(=O)c1ccccc1)NC12CC3CC(CC(C3)C1)C2	2.33%
CCOC(=O)CSc1nnc(NC(=O)c2cccc(S(=O)(=O)N3CCCCCC3)c2)s1	2.85%
COc1ccccc1NC(=O)CSc1nnc(C)o1	7.83%
CCOc1cccc(NC(=O)CSc2nncn2N)c1	8.81%

SMILES	hERG current change (%, negative = inhibition) at 10uM
CCOc1ccc(/C=N/NC(=O)c2cc(-c3ccccc3)nc3ccccc23)cc1O	-11.8%
COc1ccc(OCCOC(=O)CNC(=O)c2ccc(C)cc2)cc1	-18.3%
CCOC(=O)N1CCN(CCC(=O)Nc2ccccc2)CC1	12.2%
CS(=O)(=O)N1CCC2(CC1)OCCN2S(=O)(=O)c1ccccc1	-11.5%
Cl.O=C(CN1CCC(NC(=O)c2ccccc2Cl)CC1)NCc1ccco1	-2.98%
OC1(c2ccc(Cl)cc2)CCN(Cc2c[nH]c3ccccc23)CC1	-63.7%
Cc1ccc(-c2nnn(CC(=O)NC3CCN(Cc4ccccc4)CC3)n2)cc1	-20.3%
COC(=O)c1c(NC(=O)C(=O)N2CCCCC2)sc2c1CC(C)(C)OC2	5.8%
COc1ccc(-c2oc3ccc(N4CCOCC4)cc3c2C#CCO)cc1	8.03%
COc1cc(OC)c2nc(C)c3c(c2c1)N(c1ccc(O)cc1)CC3	-72.1%
O=c1[nH]c(C2CCN(S(=O)(=O)c3ccc4c(c3)OCCO4)CC2)nc2c1nnn2Cc1ccc(F)cc1	-1.67%
CC(C)CC(=O)Nc1ccc(C(=O)COC(=O)Cc2n[nH]c(=O)c3ccccc23)cc1	-19.5%
CNC(=O)c1cn(-c2ccc(Cl)cc2)c(=O)c2ccccc12	-9.43%
CCOc1ccccc1OCC(O)CNC (centres unmarked)	-17.4%
CC(C)N(CC(O)COc1ccc(CC(N)=O)cc1)CC(O)COc1ccc(CC(N)=O)cc1 (centres unmarked)	6.26%
Cc1cc(C)c(NC(=O)CSc2nc3ccc(NC(=O)CSc4nnnn4-c4ccccc4)cc3s2)c(C)c1	6.8%
C=CCOc1c(Cl)cc(CNCCC)cc1Cl.Cl	-4.42%
O=S(=O)(c1ccc(-c2csc(-c3cccnc3)n2)cc1)N1CCCCC1	-5.59%
Cc1cc(S(=O)(=O)Nc2ccc(C(=O)NCC(c3ccccc3)N(C)C)cc2)ccc1F (centres unmarked)	-47.9%

SMILES	hERG current change (%, negative = inhibition) at 10uM
CCn1c(=O)c2sccc2n(Cc2ccc(C)cc2)c1=O	26%
Cc1ccsc1CCNC(=O)C1CCC(=O)N(CCc2cccc(F)c2)C1 (centres unmarked)	-43.2%
O=C(c1ccc(F)cc1F)N1CCN(c2ccccn2)CC1	0.804%
CCN(Cc1ccccc1)C(=O)CSc1ncn[nH]1	28.8%
O=S(=O)(N/N=C\c1c(F)cccc1Cl)c1ccc(Cl)cc1	1.36%
Cc1cccc(Oc2nc3ccccn3c(=O)c2/C=C(\C#N)C(=O)NC2CCS(=O)(=O)C2)c1 (centres unmarked)	-2.33%
O=C(NC(C(=O)N/N=C/c1ccccn1)c1n[nH]c(=O)c2ccccc12)c1ccccc1 (centres unmarked)	-3.87%
CCn1c(SCC(=O)Nc2cccc(F)c2)nc2c(c1=O)SC(C)C2 (centres unmarked)	-37.2%
COc1ccc(Cl)cc1NC(=O)c1ccco1	-7.65%
COc1ccccc1NC(=S)N(Cc1ccco1)Cc1cc2cc(C)c(C)cc2[nH]c1=O	-12.6%
Cc1cc(C)c[n+](CC(=O)c2ccc(-c3ccccc3)cc2)c1.[Br-]	-45.3%
CCn1c(C)csc1=NC(=O)c1ccccc1O	-21%
O=C1c2ccc3c4c(ccc(c24)C(=O)N1c1ccc2ccccc2c1)CC3	11.6%
O=C(c1ccc(Cl)c(NC2=NC3CS(=O)(=O)CC3S2)c1)N1CCN(c2ccccc2)CC1 (centres unmarked)	10.8%
COc1ccc(CNC(=O)CN(Cc2ccc(OC)cc2)C(=O)c2csnn2)cc1	-57.5%
CCOc1cccc(=O)c2c(C)n(CC(=O)c3ccccc3)c(C)c12	-6.91%
O=C1C2CCN(CC2)C1Cc1ccccc1O (centres unmarked)	8.93%
CCC(C)(CC(=O)Nc1nccs1)c1ccccc1 (centres unmarked)	7.66%
